Results as given in publication PMC6919601, “Identification of Plasmodium dipeptidyl aminopeptidase allosteric inhibitors by high throughput screening” (PLoS ONE, 2019).
About 230 (0.21%) of roughly 110,000 compounds showed an effect of 50% or more. The list shows a part of the results.

Each molecule was assayed against DPAP1 (Plasmodium falciparum, UniProt Q8IIJ9) (assay: primary screen, percent inhibition; read by cleavage of a fluorogenic dipeptide substrate; higher = more effect of the substance).
Sequence of DPAP1 (Q8IIJ9 whole entry, looked up): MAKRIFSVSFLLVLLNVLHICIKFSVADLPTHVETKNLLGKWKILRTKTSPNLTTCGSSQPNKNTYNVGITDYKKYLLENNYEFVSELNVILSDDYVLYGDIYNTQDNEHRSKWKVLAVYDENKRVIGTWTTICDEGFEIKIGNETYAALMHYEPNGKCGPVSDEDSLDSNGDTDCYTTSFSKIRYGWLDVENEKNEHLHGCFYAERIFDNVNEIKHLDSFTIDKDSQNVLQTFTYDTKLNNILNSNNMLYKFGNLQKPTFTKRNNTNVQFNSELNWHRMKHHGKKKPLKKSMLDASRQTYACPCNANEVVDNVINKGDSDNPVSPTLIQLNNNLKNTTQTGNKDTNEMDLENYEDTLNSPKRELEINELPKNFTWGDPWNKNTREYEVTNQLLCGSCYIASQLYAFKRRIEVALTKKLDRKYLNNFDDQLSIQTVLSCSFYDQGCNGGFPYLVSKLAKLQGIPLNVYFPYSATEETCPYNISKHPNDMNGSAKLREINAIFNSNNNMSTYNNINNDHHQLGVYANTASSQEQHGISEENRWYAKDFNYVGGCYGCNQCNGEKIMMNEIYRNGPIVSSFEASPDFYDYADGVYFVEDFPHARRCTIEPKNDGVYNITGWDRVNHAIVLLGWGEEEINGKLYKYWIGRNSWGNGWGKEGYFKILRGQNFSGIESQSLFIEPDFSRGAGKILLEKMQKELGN
Set-up: species or system P. falciparum D10 trophozoite lysates; single well
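Note: 30 min substrate incubation versus DMSO and 10 µM JCP410 controls.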

Structure (SMILES)	% Inhibition @ 10 uM [%]
Cc1ccc(Cn2c(/N=C/c3ccccc3O)nc3ccccc32)cc1	20.3
COCCNc1nc2c(c(=O)n(Cc3ccc(F)cc3)c(=O)n2C)n1C	0.0289
Cc1cc2c(cc1Br)NC(=O)C21C(C#N)=C(N)Oc2c1c(=O)oc1ccccc21 (stereo not shown)	-2.36
CCOC(=O)C1=C(C)N(c2ccc(OCC)cc2)C(=O)/C1=C\c1cccc2ccccc12	4.68
COCCCNc1nc2c(c(=O)n(C)c(=O)n2C)n1Cc1ccc(C)cc1	-0.339
O=C(Cc1ccc(-n2c(-c3ccccc3)nc3cccnc32)cc1)NCc1ccco1	2.32
Cc1cccc(NC(=O)CS(=O)(=O)c2ccc3ccccc3c2)c1	-8.48
O=C(c1ccccc1)c1ccc2c(c1)C(=O)N(c1ccccc1C(=O)O)C2=O	1.65
COc1cc(OC)cc(C2C(C#N)=C(N)Oc3[nH]nc(C)c32)c1 (stereo not shown)	-2.56
O=C(COC(=O)c1ccc(Oc2ccc(O)cc2)cc1)c1ccccc1	9.31
NC(=O)c1cc(S(=O)(=O)N2CCCCC2)ccc1Cl	5.06
COc1ccccc1/C=C/c1nn2c(Cc3ccccc3)nnc2s1	14.7
CCc1ccc(CNC(=O)CNC(=O)c2cccs2)cc1	-4.97
O=C(OCc1ccccc1)/C(=C/C=C/c1ccccc1)NC(=O)c1ccccc1	-6.69
O=c1oc2ccccc2cc1-c1nc(-c2cccs2)no1	7.52
O=C(CCNS(=O)(=O)c1ccc2nc(O)ccc2c1)NCCC1=CCCCC1	2.73
Cc1ccc2nc(NCc3ccc(F)cc3)c3nnnn3c2c1	2.42
COc1ccc(CC(=O)Nc2cccc(C)c2)cc1	1.28
CN1CCN(C(=O)c2oc3ccccc3c2NC(=O)c2ccco2)CC1	-8.37
CCOc1cc2c(cc1OCC)C1C(C(=O)N3CCN(C)CC3)c3ccccc3C(=O)N1CC2 (stereo not shown)	0.166
Cc1ccccc1-c1nc2ccccc2c(=O)o1	3.05
NC(=O)CSc1nc(SCC(N)=O)c2sc3nc4ccccc4n3c2n1	-0.996
COc1cc(OC)cc(C2C(C#N)=C(N)Oc3[nH]nc(-c4ccc(F)cc4)c32)c1 (stereo not shown)	0.777
CCOc1ccc(-n2c(C)cc(/C=C3\C(=N)N4N=C(S(=O)(=O)CC)SC4=NC3=O)c2C)cc1	8.11
Cc1nc2cc(-c3ccc(Cl)cc3)nn2c(C)c1CCC(=O)Nc1cccnc1	4.54

Structure (SMILES)	% Inhibition @ 10 uM [%]
CCn1c(C)c(C)c2cc(C(=O)NCCCN3CCN(C)CC3)ccc21	-10.3
Cc1nc(Nc2nc3ccccc3o2)ncc1C(=O)Nc1ccc(F)cc1	-0.884
COc1ccccc1CNC(=O)Cc1c(C)c2ccc(O)cc2oc1=O	0.895
COc1ccc(CN2C(=O)c3cccnc3C2=O)cc1S(=O)(=O)N1CCc2ccccc2C1	0.0057
CCOC(=O)N1CCN(C(=O)c2cc3c(-c4cccc(OC)c4)nn(C)c3s2)CC1	1.23
Cc1ccc(S(=O)(=O)N(CC(=O)N2CCCC2)c2ccc(Cl)cc2C)cc1	-0.496
CCN(CC)C(=O)C1CCCN(Cc2ccsc2)C1 (stereo not shown)	0.605
Cc1ccc(-n2nc3ncccc3c2O)cc1C	-5.5
COC(=O)Nc1nc2cc3c(cc2s1)OCCO3	-1.91
O=C1NC(=S)N/C1=C\c1cccc([N+](=O)[O-])c1	3.25
Cc1cc(Br)ccc1OCC(=O)Nc1ccccc1C#N	2.48
O=S1(=O)Nc2c(ccc3cccnc23)-c2ccccc21	1.42
O=c1[nH]c(=O)n(Cc2ccccc2)c2c1C(c1ccccc1Cl)C1=C(O)c3ccccc3C1=N2 (stereo not shown)	4.08
Cc1ccc2oc(-c3cc(N)ccc3O)nc2c1	5.66
Cc1ccc2c(c1)C(=O)c1ccccc1-2	-4.48
O=c1cccc2n1C[C@H]1C[C@@H]2CN(CC(c2ccccc2)c2ccccc2)C1	-2.48
COc1cc(C)nc(NS(=O)(=O)c2ccc(C)cc2)n1	2.94
CN(CCNC(=O)c1cnn2c(C(F)(F)F)cc(-c3ccccc3)nc12)Cc1ccccc1	0.955
COc1cc(CN2CCN(c3ccc(C(C)=O)cc3)CC2)cc(Br)c1O	-3.8
Cc1c(C(=O)NCCN2CCOCC2)oc2ccc3c(c12)C(O)CC1(CCCCCC1)O3 (stereo not shown)	1.63
CCNC(=O)c1c(NC(=O)c2ccc(C)cc2)sc2c1CCCC2	12
COCCCNC(=O)CSc1[nH]c(-c2ccc(C)cc2)nc1-c1ccc(C)cc1	-3.39
CC(=O)NC1=NC(=O)/C(=C\c2ccc(N(C)C)c(Br)c2)S1	-1.65
COCCCNC(=O)c1c(NC(=O)Cc2coc3ccc(C)cc23)sc2c1CCCC2	-6.04
CC(=O)c1c(C)oc2ccc(NS(=O)(=O)c3ccc(C)cc3)cc12	0.878

Structure (SMILES)	% Inhibition @ 10 uM [%]
C=CCc1c(C)nc(-c2ccccc2)nc1Nc1ccc(C(C)=O)cc1	2.58
Cc1ccc(C)c(OCC(=O)N2CCCCC2)c1	0.54
OCCNC1Cc2cc(Cl)ccc2Sc2ccccc21 (stereo not shown)	-9.24
CCCCNCc1cccn1-c1ccccc1	-1.75
Cc1cc(C)cc(NC(=O)CN(c2ccc(Cl)cc2)S(C)(=O)=O)c1	-1.43
CCN(CC)C(=O)Cn1c(=O)n(Cc2ccccc2)c(=O)c2c(C)c(C(=O)N(CC)CC)sc21	4.3
COc1cc(CNC(=O)C2CCCC2)cc(OC)c1OC	-4.48
CC(C)(C)c1ccc(C(=O)N[C@@H](Cc2cc(Cl)c(O)c(Cl)c2)C(=O)NC2(C#N)CC2)cc1	0.173
COc1ccc(-c2nc(CS(=O)CC(=O)NCc3ccc4c(c3)OCO4)c(C)o2)cc1 (stereo not shown)	0.689
CCOC(=O)N1CCN(C(=O)c2cc3c(O)nc4ccc(C)cc4c3s2)CC1	14.1
N#CCCN(Cc1ccccc1)C(=O)CCC(=O)c1ccc(F)cc1	0.238
O=C1NC(=O)/C(=C\c2cccn2-c2ccc(Br)cc2)N1	-0.178
C=CCSc1nc2c(c(-c3ccc(Br)cc3)c1C#N)C(=O)CC(C)(C)C2	2.23
O=C(c1cccnc1)c1conc1C(=O)c1ccc(Br)cc1	91.9
CCCn1c(=O)c(C(=O)Nc2cccc(Br)c2)c(O)c2ccccc21	0.843
O=C1CC(N2CCN(c3ccccn3)CC2)C(=O)N1c1cccc(Cl)c1 (stereo not shown)	-2.07
COc1ccccc1C(=O)NC1CC(C)(C)Cc2occc21 (stereo not shown)	6.15
Cc1ccccc1S(=O)Cc1ccc(C(=O)N2CCc3ccccc3C2)o1 (stereo not shown)	-1.28
CCOc1ccc(-n2c(SC(CC)C(=O)N(CC)CC)nc3nnc(C)c-3c2N)cc1 (stereo not shown)	4.35
COc1ccc(CNC(=O)C2CCN(S(=O)(=O)c3c(C)noc3C)CC2)cc1	-0.704
CCOc1ccccc1CNCc1c(C(=O)O)n(Cc2ccccc2F)c2cc(OC)ccc12	-0.517
Cn1c(=O)c2c(n(C)c1=O)[n+](C)cn2CC(=O)c1ccccc1	-2.86
Cc1nc2n(C)nc(Nc3ccccc3)[n+]2c2ccccc12	-4.52
CCOc1ccccc1-c1cn2nc(CC(C)C)sc2n1	5.35
Cc1cccc(CSC[C@H](NC(=O)c2ccccc2)C(=O)NCC#N)c1	-5.21

Structure (SMILES)	% Inhibition @ 10 uM [%]
CCOC(=O)c1[nH]c(C#N)c(C(=O)OCC)c1C	4.15
Clc1cccc(N2CCN(Cc3cc(Br)cs3)CC2)c1	4.04
COc1cccc(C(C(F)(F)F)P(C)(=O)O)c1 (stereo not shown)	4.1
Cc1nc2c(-c3ccc(F)cc3)c(C)nn2c(C)c1CCC(=O)NCCC1=CCCCC1	2.93
COc1ccc(CN2C(=O)CSC2c2ccc3cccc(O)c3n2)cc1 (stereo not shown)	-3.95
CN1CCc2cc(CO)sc2C1	1.77
N#CCc1ccc(NC(=O)c2ccncc2)cc1	-6.92
C=CCOc1ccccc1CNc1ccc(C)cc1	1.08
COc1ccc(N2C(=O)CC(N(CCc3ccccc3)C(C)=O)C2=O)cc1 (stereo not shown)	-12.1
NC(=O)C1CCN(C(=O)C2=Cc3sc4c(c3CS2)CCCC4)CC1	0.942
C/C(=N/O)c1ccc(OCCO)cc1	0.035
Oc1ccc2ccccc2c1/C=N/c1cccn2cc(-c3ccccc3)nc12	-2.98
CCCCNc1ncnc2c1cnn2C	2.88
CC(C)(C)c1ccc2[nH]c3c(c2c1)CCCC3=O	-0.13
CCOC(=O)C1=C(O)/C(=C/c2cccnc2)N=C1C	-3.41
COc1ccc(C2c3c(oc4ccccc4c3=O)C(=O)N2c2nnc(C(C)C)s2)cc1 (stereo not shown)	-4
COc1ccc(CCN(C(C)=O)C2CC(=O)N(c3ccc(OC)cc3)C2=O)cc1 (stereo not shown)	5.41
O=C(/C=C/c1ccccc1)Nc1cccc2ccccc12	1.7
CCC(=O)OC1(c2ccccc2)CCN(C)C(C)C1 (stereo not shown)	-2.56
O=C(CC1CC2CCC1C2)NCc1ccccc1C(F)(F)F (stereo not shown)	-5.03
CCCN1CCC(N2C[C@@H]3C[C@H](C2)c2cccc(=O)n2C3)CC1	-1.85
COc1ccc(NC(=O)CSc2nc(C)cc(O)n2)cc1	-0.231
Cc1ccc(/C=C/C2=NC(=C\c3ccc(F)cc3)/C(=O)O2)cc1	3.74
CSC1=NSC2=NC(=O)/C(=C\c3c(C)[nH]c4ccc(C)cc34)C(=N)N12	1.07
Cc1nn(C(C)C(=O)NCCCOC(C)C)c(=O)c2cc3sccc3n12 (stereo not shown)	-1.58
